# Results reported in PubChem BioAssay AID588855 (National Center for Advancing Translational Sciences (NCATS), 2011).
# Screen size: about 410,000 compounds; about 5,000 (1.2%) were called active. This list was built around the results that the source calls inconclusive (neither active nor inactive); the mix of calls is not that of the screen. Calls come from the whole dose curve; as a rule, active = well fitted inhibition curve with a large enough effect; inconclusive = small, poorly fitted or top-dose-only effect; inactive = no such curve, though single readings can be large or run the other way. A potency beside an inconclusive call is a rough fit, not a confirmed value.
# Assay: qHTS for Inhibitors of TGF-b; note: nearly all actives have a fitted effect of over 65% in size
# Conditions: HepG2 CAGA-GFP TGF-b/SMAD3 reporter, GFP fluorescence, 18 h, TGF-beta stimulated, 500 pg/mL final; series mostly up to 46.1 µM; activity, negative = inhibition: at the top concentration
# Outline: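 Smad-responsive CAGA-GFP expression was quantified in HEPG2 cells exposed to compounds and 500 pg/mL final TGF-beta for 18 h at 37 degrees C; unstimulated wells defined full inhibition.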
# % is set by controls: 0 for no effect and ±100 for the full control effect; potency is the fitted concentration of half-maximal effect; tags give direction and shape of the fitted curve.
SMILES,Potency,"activity, negative = inhibition"
O=C1CC(=O)Nc2cc(S(=O)(=O)N3CCOc4ccccc43)ccc2N1,inactive,–
Cc1ccc(NS(=O)(=O)c2ccc(C(=O)N3CCCCCC3)cc2)cc1,"inconclusive: 2.51 µM [inhibitor, full curve]",–
Cc1cc(Nc2sc(C(=O)c3ccc(F)cc3)c(N)c2C(=O)Nc2ccc(F)cc2)ccc1Cl,"inconclusive: 3.98 µM [inhibitor, full curve]",–
CCOC(=O)c1sc2nc(C)cc(-c3ccccc3)c2c1N,–,inactive: 0.734%
COc1cccc(N2CCN(C(=O)c3c(C)oc4ncnc(N5CCCCC5)c34)CC2)c1,"inconclusive: 35.5 µM [inhibitor, single point]",–
CCOC(=O)c1c(NC(=O)CNCCOC)sc2c1CCCC2,–,inactive: -5.9%
Cc1ccc(-c2nnc(Nc3ccc(O)cc3)c3ccccc23)cc1S(=O)(=O)NCc1nc2ccccc2[nH]1,"inconclusive: 35.5 µM [inhibitor, single point]",–
COC1(OC)N=C(N)C2(C#N)C(c3ccc(F)cc3)C12C#N (configuration not stated),"inconclusive: 15.8 µM [inhibitor, single point]",–
CC1=C(C(=O)OC2CCCCC2)C(c2cccnc2)n2ncnc2N1 (configuration not stated),"inconclusive: 35.5 µM [inhibitor, single point]",–
Cc1cccc[n+]1CCCCCCCCCC[n+]1ccccc1C,"inconclusive: 7.94 µM [inhibitor, partial curve]",–
CCCOc1cc2c(C#N)c(N3CCCC3)nc(N)c2c(N)n1,"inconclusive: 20 µM [inhibitor, single point]",–
Cc1cc(=O)[nH]c(SCC(=O)N2CCCc3ccccc32)n1,"inconclusive: 15.8 µM [inhibitor, single point]",–
COCCN(CCOC)C(=O)COC(=O)c1ccc(Cl)c(S(=O)(=O)N(C)c2ccccc2)c1,"inconclusive: 11.2 µM [inhibitor, partial curve, poor fit]",–
COc1ccc(N(C(=O)COc2c(C)cccc2C)S(=O)(=O)c2ccc(Cl)cc2)cc1,"inconclusive: 25.1 µM [inhibitor, single point]",–
CCC(C)[C@H]1CN=C(N)N1CCc1cc(C(F)(F)F)cc(C(F)(F)F)c1 (some centres not stated),"inconclusive: 35.5 µM [inhibitor, single point]",–
O=C(c1ccc(-c2ccc(Cl)cc2)o1)N1CCN(c2ccc([N+](=O)[O-])cc2Cl)CC1,"inconclusive: 6.31 µM [inhibitor, partial curve]",–
CC(=O)NC(c1cccs1)c1cc(F)c2cccnc2c1O (configuration not stated),"inconclusive: 2.82 µM [inhibitor, full curve, poor fit]",–
Cc1ccccc1C(=O)NCC(c1cccnc1)N1CCc2ccccc21 (configuration not stated),"inconclusive: 15.8 µM [inhibitor, single point]",–
CCOc1ccc(Br)cc1S(=O)(=O)Nc1ccc(Cl)c(S(=O)(=O)N(C)C)c1,"inconclusive: 11.2 µM [inhibitor, partial curve, poor fit]",–
Cc1cccn2c(=O)c3cc(C#N)c(=NC(=O)c4ccccc4)n(Cc4ccco4)c3nc12,inactive,–
Cc1cnc(C(=O)OCC(=O)Nc2ccc(C)c(S(=O)(=O)N3CCOCC3)c2)cn1,"inconclusive: 1.12 µM [inhibitor, partial curve, poor fit]",–

SMILES,Potency,"activity, negative = inhibition"
CCOC(=O)c1c(-c2ccc3ccccc3c2)csc1NC(=O)CCCC(=O)O,"inconclusive: 35.5 µM [inhibitor, single point]",–
CCOC(=O)c1c(C)oc2nc(C)nc(NCc3ccc(C)cc3)c12,–,inactive: 26.8%
CCOCCCn1c(=N)c(C(=O)NCc2ccco2)cc2c(=O)n3ccccc3nc21,"inconclusive: 6.31 µM [inhibitor, single point]",–
COc1ccc(-c2nnc(SC(C)C(=O)NCc3ccc4c(c3)OCO4)n2Cc2ccco2)cc1 (configuration not stated),"inconclusive: 14.1 µM [inhibitor, single point]",–
COCCCNc1nc2c(-c3ccccc3)nnn2c2ccccc12,–,inactive: -16.4%
Cn1c(CCN2CCN(c3ccccn3)CC2)nc2cc(NC(=O)COc3ccc(Cl)cc3)ccc21,"inconclusive: 35.5 µM [inhibitor, single point]",–
COc1ccc(S(=O)(=O)N2CCN(CC(=O)Nc3sccc3C(N)=O)CC2)cc1OC,"inconclusive: 12.6 µM [inhibitor, partial curve]",–
NC(N)=Nc1nc2ccc([N+](=O)[O-])cc2[nH]1,–,inactive: -4.22%
Cc1ccc(-c2csc(NC(=O)CN3CCOCC3)n2)cc1,"inconclusive: 35.5 µM [inhibitor, single point]",–
Cc1ccc(OCC(=O)N(Cc2ccccc2)C(C)(C)C)c([N+](=O)[O-])n1,"inconclusive: 17.8 µM [inhibitor, single point]",–
COc1ccc(NC(=S)N2CCN(C(=O)c3ccco3)CC2)cc1OC,"inconclusive: 35.5 µM [inhibitor, single point]",–
COc1cc(C#Cc2c(-c3cncn3C)n(C)c3ccc(-c4cc(OC)c(OC)c(OC)c4)cc23)cc(OC)c1,"inconclusive: 22.4 µM [inhibitor, single point]",–
Cc1ccc(S(=O)(=O)N2[C@@H](c3ccc(C(C)(C)C)cc3)C(C(=O)O)=CC[C@H]2c2ccc3c(c2)OCO3)cc1,"inconclusive: 15.8 µM [inhibitor, single point]",–
CCc1ccc(NC(=O)[C@H](Cc2ccccc2)NC(=O)C2CCN(C(=O)[C@@H](N)CC(C)C)CC2)cc1,–,inactive: -19.1%
Oc1c(N=NC(=S)Nc2ccccc2F)c2ccccc2n1Cc1ccccc1F,–,inactive: -3.83%
COc1cc2c(C#Cc3cccnc3)c(-c3ccsc3)oc(=O)c2cc1OC,"inconclusive: 6.31 µM [inhibitor, single point]",–
Cc1nn(C)c(C)c1S(=O)(=O)N(CC(=O)Nc1ccc2c(c1)OCO2)c1ccc(C(C)C)cc1,"inconclusive: 15.8 µM [inhibitor, single point]",–
C=CCNC(=S)N/N=C/c1ccc(C(C)(C)C)cc1,"inconclusive: 35.5 µM [inhibitor, single point]",–
Cc1cccc(OCc2nc3ccccc3n2C)c1,–,inactive: -3.4%
CCCCc1oc2ccccc2c1C(=O)c1cc(I)c(N(CC)CCOCC)c(I)c1,"inconclusive: 35.5 µM [inhibitor, single point]",–
CN1C(=O)/C(=C/c2ccccc2OCc2ccccc2)NC1=S,"inconclusive: 2.82 µM [inhibitor, partial curve, poor fit]",–

SMILES,Potency,"activity, negative = inhibition"
CCCN(CCC)Cc1c(C(=O)N/N=C/C(C)=C\c2ccccc2)nnn1-c1nonc1N,"inconclusive: 22.4 µM [inhibitor, single point]",–
NS(=O)(=O)c1ccc(CCNc2nn3c(-c4cccc(OC(F)(F)F)c4)cnc3s2)cc1,"inconclusive: 35.5 µM [inhibitor, single point]",–
CC(C)C1CCN(C(=O)C2CCC(=O)N(C3CCCCCC3)C2)CC1 (configuration not stated),"inconclusive: 7.08 µM [inhibitor, partial curve]",–
COc1cc2c3c(c1OC)C(=O)CC3CCCC2 (configuration not stated),"inconclusive: 3.55 µM [inhibitor, single point]",–
Cc1ccc(Cl)cc1N1CCN(C(=O)c2cn(C)c3ccc(S(=O)(=O)N(C)C4CCCCC4)cc3c2=O)CC1,"inconclusive: 35.5 µM [inhibitor, partial curve, poor fit]",–
Cc1cccc(N2CCN(C(=O)c3c(C)oc4nc(C)nc(N5CCCC5)c34)CC2C)c1 (configuration not stated),"inconclusive: 7.08 µM [inhibitor, partial curve]",–
COc1ccc(C(=O)/C=C2/C(=O)Nc3ccccc32)cc1,"inconclusive: 28.2 µM [inhibitor, single point]",–
COc1ccccc1C(=O)NC(=S)Nc1cccnc1Cl,–,inactive: 0.0052%
COc1ccc(OCC(O)CNC(=O)Nc2ccc(C(C)(C)C)cc2)cc1 (configuration not stated),"inconclusive: 35.5 µM [inhibitor, single point]",–
CCOc1cc(C(=O)N2CCC(CC3CC(c4cccc(Br)c4)=NO3)(C(=O)NCC3CCCCC3)CC2)cc(OCC)c1OCC (configuration not stated),"inconclusive: 35.5 µM [inhibitor, single point]",–
Cn1cc(S(=O)(=O)c2ccccc2)c(=O)c2cc(F)c(N3CCN(c4ccc(F)cc4)CC3)cc21,"inconclusive: 35.5 µM [inhibitor, single point]",–
Cc1ccc(-c2nnc(Nc3ccc(Cl)cc3)c3ccccc23)cc1S(=O)(=O)N1CCOCC1,"inconclusive: 7.08 µM [inhibitor, partial curve, poor fit]",–
Cc1ccc(NC(=S)NNC(C)(C)C)cc1,–,inactive: -82%
CCCN1CCN(CCCNC(=O)c2ccc3c(c2)sc2nc(-c4ccc(C)cc4)cn23)CC1,"inconclusive: 35.5 µM [inhibitor, single point]",–
COc1ccccc1NS(=O)(=O)c1cc(C(=O)Nc2ccc(S(=O)(=O)Nc3onc(C)c3C)cc2)ccc1C,"inconclusive: 3.98 µM [inhibitor, single point]",–
COc1ccccc1N1CCN(c2nc3ccc(C)cc3nc2-n2nc(C)cc2C)CC1,"inconclusive: 35.5 µM [inhibitor, single point]",–
CCOC(=O)c1c(C)oc2c1c(CN1CCN(C(=O)OCC)CC1)c(O)c1ccccc12,"inconclusive: 11.2 µM [inhibitor, partial curve, poor fit]",–
COc1cc(SC)ccc1C(=O)Nc1c(C)cccc1C,–,inactive: -0.124%
COc1ccccc1-c1oc2ccccc2c1C#CC(C)(C)O,"inconclusive: 8.91 µM [inhibitor, single point]",–
Cc1cccc(-c2noc(-c3ccc(NCC4CCCO4)c([N+](=O)[O-])c3)n2)c1 (configuration not stated),–,inactive: -15.8%
